Hit rate of the full screen: of about 39,000 compounds, about 220 (0.56%) showed activity. This is one part of the list.
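Also: static incubation at 37 °C against the wild-type strain, values averaged over two biological replicates.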

The test system of the experiment is Escherichia coli K-12 BW25113. The experiment in a line: relative growth (OD600 normalised to plate interquartile mean) (fraction); higher = less growth inhibition, active = 0.2 or less. The conditions noted are these: 50 µM; LB; incubation time: overnight (16-24 h).
For `COCC#Cc1ccc2c(c1)O[C@H](CN(C)S(=O)(=O)c1ccc(F)cc1)[C@H](C)CN([C@@H](C)CO)S2(=O)=O`, the relative growth was inactive: 1.01.

Consider `COc1ccc(S(=O)(=O)Nc2ccc3c(c2)C(=O)N([C@@H](C)CO)C[C@H](C)[C@@H](CN(C)S(=O)(=O)c2ccccc2)O3)cc1`, for which the relative growth was inactive: 1.01.

On to `CCOc1ccc(S(N)(=O)=O)cc1`, for which the relative growth is inactive: 0.947.

With `COc1ccc(S(=O)(=O)Nc2ccc3c(c2)C(=O)N([C@H](C)CO)C[C@H](C)[C@@H](CN(C)C(=O)NC(C)C)O3)cc1`, the relative growth is inactive: 0.999.

Turning to `O=S1(=O)NCNc2ccccc21`, the relative growth is inactive: 0.991.

With `O=C(N[C@H](c1ccc2ccccc2n1)c1cccs1)C1CCN(Cc2cccc(C(F)(F)F)c2)CC1`, the relative growth is inactive: 0.995.

On to `C[C@H](CO)N1C[C@H](C)[C@@H](CN(C)C(=O)C2CCCCC2)OCCCC[C@H](C)Oc2ccc(NS(=O)(=O)c3ccccc3)cc2C1=O`, for which the relative growth was inactive: 1.01.

Regarding `Cn1nc(C(=O)O)c2ccccc2c1=O`, the relative growth is inactive: 1.01.

Consider `COCC#Cc1ccc2c(c1)O[C@H](CN(C)S(=O)(=O)c1ccc(F)cc1)[C@@H](C)CN([C@@H](C)CO)S2(=O)=O`, for which the relative growth was inactive: 0.995.

Consider `C[C@H]1CN([C@@H](C)CO)C(=O)CCCn2nncc2CO[C@H]1CN(C)C(=O)Nc1cccc(Oc2ccccn2)c1`, for which the relative growth is inactive: 0.989.

As to `O=C1/C(=C/C=C/c2ccco2)CCC/C1=C\C=C\c1ccco1`, the relative growth was inactive: 0.991.

With `O=C(C[C@@H]1C=C[C@@H](NC(=O)CN2CCOCC2)[C@@H](CO)O1)NCCc1ccccc1`, the relative growth was inactive: 1.04.

For `CC(C)NC(=O)Nc1ccc2c(c1)C(=O)N([C@H](C)CO)C[C@H](C)[C@@H](CN(C)Cc1ccc(C(F)(F)F)cc1)OCCCC[C@H](C)O2`, the relative growth is inactive: 1.01.

In the case of `C[C@@H]1CN([C@@H](C)CO)C(=O)Cc2cc(NC(=O)Nc3cccc4ccccc34)ccc2O[C@H]1CN(C)Cc1ccc(C(F)(F)F)cc1`, the relative growth was inactive: 1.04.

As to `C[C@@H]1CN([C@H](C)CO)C(=O)c2cc(NS(=O)(=O)c3ccc(F)cc3)ccc2O[C@H]1CN(C)S(C)(=O)=O`, the relative growth was inactive: 1.

As to `C[C@@H]1CCCCO[C@H](CN(C)S(=O)(=O)c2cccs2)[C@@H](C)CN([C@@H](C)CO)C(=O)c2cc(NC(=O)Nc3ccc(F)cc3)ccc2O1`, the relative growth is inactive: 1.01.

As for `Nc1c(O)cccc1C(=O)C[C@H](N)C(=O)O`, the relative growth was inactive: 1.02.

Regarding `COc1ccc(S(=O)(=O)N2C[C@@H](O)COC[C@@H]3O[C@@H](CC(=O)NCc4ccc(Cl)c(Cl)c4)CC[C@H]32)cc1`, the relative growth is inactive: 1.03.

Take `CCNC(=O)C[C@@H]1CC[C@@H]2[C@H](COC[C@H](O)CN2C(=O)Nc2c(C)noc2C)O1`: the relative growth was inactive: 1.

With `Cc1ccc(S(=O)(=O)N(C)C[C@H]2Oc3ccc(NC(=O)NC(C)C)cc3C(=O)N([C@@H](C)CO)C[C@@H]2C)cc1`, the relative growth is inactive: 0.978.

Regarding `CCc1cn(C2OCC(O)C2CO)c(=O)nc1O` (stereo not given), the relative growth was inactive: 1.02.

Regarding `Cc1cccc(N2C[C@@H](CN)OC2=O)c1`, the relative growth was inactive: 0.93.

On to `CO[C@@H]1CN(C)C(=O)c2ccc(NS(=O)(=O)c3cn(C)cn3)cc2OC[C@@H](C)N(CCC(F)(F)F)C[C@H]1C`, for which the relative growth was inactive: 1.03.

Regarding `C[C@@H]1CCCCO[C@H](CN(C)C(=O)Nc2cccc3ccccc23)[C@H](C)CN([C@@H](C)CO)C(=O)c2cc(N(C)C)ccc2O1`, the relative growth was inactive: 0.993.

`Cc1noc(C)c1NC(=O)Nc1ccc2c(c1)CC(=O)N([C@@H](C)CO)C[C@@H](C)[C@H](CN(C)Cc1ccc(C(F)(F)F)cc1)O2`: the relative growth was inactive: 1.04.

For `Cc1noc(C)c1S(=O)(=O)Nc1ccc2c(c1)C(=O)N([C@H](C)CO)C[C@@H](C)[C@@H](CN(C)S(=O)(=O)c1ccccc1)O2`, the relative growth is inactive: 0.978.

Consider `C[C@H]1CN([C@@H](C)CO)C(=O)Cc2cc(N(C)C)ccc2O[C@H]1CN(C)S(=O)(=O)c1ccc(F)cc1`, for which the relative growth is inactive: 0.991.

Take `c1ccc2c(CSc3nc4ccccc4s3)cccc2c1`: the relative growth is inactive: 1.04.

For the molecule `O=C(O)[C@H](O)[C@@](O)(Cc1ccc(O)cc1)C(=O)O`, the relative growth was inactive: 0.979.

Consider `Cc1cnc(C(=O)NCCc2ccc(S(=O)(=O)NC(=O)NC3CCCCC3)cc2)cn1`, for which the relative growth is inactive: 1.15.

As to `C[C@@H]1CCCCO[C@H](CN(C)CC2CCCCC2)[C@H](C)CN([C@@H](C)CO)C(=O)c2cc(NS(=O)(=O)c3ccc(Cl)cc3)ccc2O1`, the relative growth was inactive: 0.994.

For the molecule `COc1ccc(S(=O)(=O)Nc2ccc3c(c2)C(=O)N([C@H](C)CO)C[C@H](C)[C@@H](CN(C)Cc2ccc(C(=O)O)cc2)OCCCC[C@@H](C)O3)cc1`, the relative growth was inactive: 0.989.

`CCS(=O)(=O)N1CC[C@]2(CC1)CN([C@@H](CO)c1[nH]c3cc(ccc3c12)OC)C(=O)Cc1ccccn1`: the relative growth is inactive: 0.997.

Take `C[C@@H]1CN([C@H](C)CO)C(=O)c2cc(NC(=O)NC3CCCCC3)ccc2O[C@H]1CN(C)C(=O)Nc1ccc(C(F)(F)F)cc1`: the relative growth is inactive: 1.01.

Turning to `CNC(=O)C[C@@H]1CC[C@@H]2[C@@H](COc3ccc(NC(=O)c4ccc(C(F)(F)F)cc4)cc3C(=O)N2C)O1`, the relative growth is inactive: 1.

`CC(C)NC(=O)Nc1ccc2c(c1)C(=O)N([C@H](C)CO)C[C@@H](C)[C@@H](CN(C)C(=O)C1CCCCC1)OCCCC[C@@H](C)O2`: the relative growth was inactive: 1.01.

As for `Cc1noc(C)c1S(=O)(=O)N(C)C[C@H]1Oc2ccc(NS(=O)(=O)c3cn(C)cn3)cc2C(=O)N([C@H](C)CO)C[C@H]1C`, the relative growth is inactive: 1.02.

Turning to `C[C@@H]1[C@@H]([Si](C)(C)F)[C@H](CCO)O[C@@]12C(=O)N(Cc1ccccc1)c1ccc(N(C=O)c3ccccc3)cc12`, the relative growth is inactive: 1.02.

As to `Nc1nc(N)nc(-c2cc(Cl)ccc2Cl)n1.O=C(O)C=CC(=O)O`, the relative growth was inactive: 1.04.

Regarding `CCCC#Cc1ccc2c(c1)O[C@@H](CN(C)S(=O)(=O)c1cccc(F)c1)[C@@H](C)CN([C@H](C)CO)S2(=O)=O`, the relative growth is inactive: 1.01.

For the molecule `C[C@@H]1CN([C@@H](C)CO)C(=O)c2cccc(NC(=O)Nc3ccc(F)cc3)c2O[C@H]1CN(C)Cc1ccc(C(=O)Nc2ccccc2N)cc1`, the relative growth was inactive: 0.983.

For the molecule `C[C@@H]1CN([C@@H](C)CO)C(=O)c2cc(NC(=O)c3ccccc3)ccc2O[C@@H](C)CCCCO[C@H]1CN(C)C(=O)c1ccccc1`, the relative growth is inactive: 1.

As to `COc1ccc(S(=O)(=O)Nc2ccc3c(c2)C(=O)N([C@H](C)CO)C[C@@H](C)[C@H](CN(C)C(=O)C2CCCCC2)OCCCC[C@@H](C)O3)cc1`, the relative growth is inactive: 1.01.

For the molecule `O=C(C[C@H]1CC[C@@H]2[C@H](COC[C@H](O)CN2S(=O)(=O)c2ccc(F)cc2)O1)N[C@H]1CCN(Cc2ccccc2)C1`, the relative growth was inactive: 0.939.

With `CC(C)NC(=O)Nc1ccc2c(c1)C(=O)N([C@H](C)CO)C[C@H](C)[C@H](CN(C)C(=O)Nc1ccccc1)OCCCC[C@H](C)O2`, the relative growth is inactive: 1.01.

For `Cc1noc(C)c1NC(=O)Nc1ccc2c(c1)C(=O)N([C@H](C)CO)C[C@H](C)[C@H](CN(C)C(=O)Cc1ccccc1)OCCCC[C@H](C)O2`, the relative growth is inactive: 1.02.

`COc1ccc(S(=O)(=O)Nc2ccc3c(c2)CC(=O)N([C@H](C)CO)C[C@H](C)[C@H](CN(C)C(=O)NC(C)C)O3)cc1`: the relative growth is inactive: 0.983.

For `COc1cccc(S(=O)(=O)N2C[C@@H](O)COC[C@H]3O[C@@H](CC(=O)N4CCN(C)CC4)CC[C@@H]32)c1`, the relative growth was inactive: 1.03.

Regarding `Cc1noc(C)c1NC(=O)Nc1ccc2c(c1)C(=O)N([C@H](C)CO)C[C@H](C)[C@@H](CN(C)C(=O)Nc1cccc3ccccc13)O2`, the relative growth was inactive: 0.995.

Regarding `C[C@@H]1CN([C@@H](C)CO)C(=O)c2cc(NC(=O)Nc3ccc(C(F)(F)F)cc3)ccc2O[C@@H](C)CCCCO[C@@H]1CN(C)S(=O)(=O)c1ccc(F)cc1`, the relative growth was inactive: 0.993.

For `C[C@H]1CN([C@@H](C)CO)C(=O)Cc2cc(NC(=O)Nc3cccc4ccccc34)ccc2O[C@@H]1CN(C)Cc1ccncc1`, the relative growth was inactive: 0.996.

Take `C[C@@H]1CCCCO[C@H](CN(C)CC2CCCCC2)[C@H](C)CN([C@@H](C)CO)C(=O)c2cc(NC(=O)CCC(F)(F)F)ccc2O1`: the relative growth is inactive: 0.998.

`COc1ccccc1C(=O)Nc1ccc2c(c1)C(=O)N(C)[C@H]1CC[C@@H](CC(=O)NCCc3ccncc3)O[C@@H]1CO2`: the relative growth is inactive: 0.979.

For `O=C(C[C@@H]1CC[C@H]2[C@@H](COC[C@H](O)CN2Cc2cc(F)ccc2F)O1)N[C@@H]1CCN(Cc2ccccc2)C1`, the relative growth was inactive: 0.989.

For `Cc1ccc(S(=O)(=O)Nc2ccc3c(c2)C(=O)N([C@@H](C)CO)C[C@H](C)[C@@H](CN(C)Cc2ccccc2)OCCCC[C@H](C)O3)cc1`, the relative growth was inactive: 0.954.

`C[C@@H]1CN([C@@H](C)CO)S(=O)(=O)c2ccc(C3=CCCCC3)cc2O[C@H]1CN(C)S(=O)(=O)c1cn(C)cn1`: the relative growth is inactive: 1.01.

For the molecule `COc1ccc(NC(=O)Nc2ccc3c(c2)C(=O)N([C@@H](C)CO)C[C@H](C)[C@H](CN(C)Cc2ccc(-c4ccccc4)cc2)O3)cc1`, the relative growth was inactive: 1.04.

In the case of `C[C@@H]1CCCCO[C@@H](CN(C)Cc2ccccc2)[C@H](C)CN([C@H](C)CO)C(=O)c2cc(NS(=O)(=O)c3cccs3)ccc2O1`, the relative growth is inactive: 0.983.

On to `CC(C)CC#Cc1ccc2c(c1)O[C@@H](CN(C)S(=O)(=O)c1cccc(F)c1)[C@H](C)CN([C@H](C)CO)S2(=O)=O`, for which the relative growth was inactive: 0.999.

Turning to `C[C@H](CO)N1C[C@H](C)[C@H](CN(C)S(=O)(=O)c2cn(C)cn2)Oc2ccc(NC(=O)C3CC3)cc2CC1=O`, the relative growth is inactive: 1.01.

For the origin of these results see the supplement of paper PMC9446081.
